From the supplement of paper PMC10670038
Counter-ions that a name gives are not always drawn. ± gives the standard deviation of the averaged measurements. Whole data set: some 2,000 compounds, median “relative cell viability vs DMSO, compound alone” near 1.1, cut for the lowest 2% near 0.29. This is one part of the list.

What follows are compounds tested on TE10 (assay: relative cell viability vs DMSO, compound alone (fraction); TE10 is an esophageal squamous carcinoma line; higher = less cytotoxic). Details: 2 µM; 48 h.
Protocol: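 TE10 ESCC cells (1,000/well, 384-well plates) were treated with Selleck bioactive library compounds at 2 uM alone for 48 h. Viability was read by CellTiter-Glo and expressed relative to DMSO wells. Two technical replicates (A, B).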
`CNC(=O)Nc1ccc(-c2nc(N3CC4CCC(C3)O4)c3cnn(C4CCC5(CC4)OCCO5)c3n2)cc1` was tested, and the relative cell viability was 0.4519 ± 0.0032.
In the case of `CN1CC2c3ccccc3Oc3ccc(Cl)cc3C2C1` (stereo unspecified) [Asenapine], the relative cell viability is reported as 1.054 ± 0.0068.
`COC1=C2C[C@@H](C)C[C@H](OC)[C@H](O)[C@@H](C)/C=C(\C)[C@H](OC(N)=O)[C@@H](OC)/C=C\C=C(/C)C(=O)NC(=CC1=O)C2=O` [Geldanamycin] was tested, and the relative cell viability was 0.557 ± 0.023.
With `CCC(CC)CC1(C(=O)Nc2ccccc2SC(=O)C(C)C)CCCCC1` the relative cell viability was 1.12 ± 0.055.
In the case of `c1ccc2[nH]c(-c3cscn3)nc2c1` [Thiabendazole], the relative cell viability is reported as 0.94 ± 0.13.
`Cn1cc(-c2ccc3nnc(C(F)(F)c4ccc5ncccc5c4)n3n2)cn1` showed a relative cell viability of 0.996 ± 0.15.
With `CC1(C)S[C@@H]2[C@H](NC(=O)[C@H](NC(=O)N3CCN(S(C)(=O)=O)C3=O)c3ccccc3)C(=O)N2[C@H]1C(=O)O` [Mezlocillin Sodium] the relative cell viability was 1.08 ± 0.021.
With `Cn1c(=O)cc(N2CCC[C@@H](N)C2)n(Cc2ccccc2C#N)c1=O` [Alogliptin] the relative cell viability was 1.2 ± 0.12.
`Cc1nnc(C(C)C)n1C1C[C@H]2CC[C@@H](C1)N2CC[C@H](NC(=O)C1CCC(F)(F)CC1)c1ccccc1` (stereo in doubt) [Maraviroc] was tested, and the relative cell viability was 0.983 ± 0.027.
Work on `CCCCCCCN(CC)CCCC(O)c1ccc(NS(C)(=O)=O)cc1` (stereo unspecified) [Ibutilide Fumarate] yielded a relative cell viability of 1.08 ± 0.021.
In the case of `COc1cc(Nc2ncc(F)c(Nc3ccc4c(n3)N(COP(=O)(O)O)C(=O)C(C)(C)O4)n2)cc(OC)c1OC` [Fostamatinib (R788)], the relative cell viability is reported as 0.928 ± 0.018.
Compound `CC(C)c1cc(C(=O)N2Cc3ccc(CN4CCN(C)CC4)cc3C2)c(O)cc1O` has a relative cell viability of 0.629 ± 0.062.
Compound `COc1cnc(NS(=O)(=O)c2ccc(N)cc2)nc1` [Sulfameter] has a relative cell viability of 1.09 ± 0.049.
Work on `O=NN(CCCl)C(=O)NC1CCCCC1` [Lomustine] yielded a relative cell viability of 1.08 ± 0.036.
Compound `COc1cc(CCC(C)=O)ccc1O` [Vanillylacetone] has a relative cell viability of 1.07 ± 0.043.
`CCCCCCCCc1ccc(CCC(N)(CO)CO)cc1` [Fingolimod (FTY720) HCl] was tested, and the relative cell viability was 0.739 ± 0.06.
`COc1cc(C(=O)NC2CCCNC2)cc(OC)c1OC` (stereo unspecified) [Troxipide] gave a relative cell viability of 1.13 ± 0.016.
`Nc1ncnc2c1c(-c1cccc(OCc3ccccc3)c1)cn2C1CC(CN2CCC2)C1` (stereo unspecified) was tested, and the relative cell viability was 1.14 ± 0.038.
With `C[C@]12CC[C@@H]3c4ccc(O)cc4CC[C@H]3[C@@H]1CCC2=O` [Estrone] the relative cell viability was 0.992 ± 0.1.
With `NC(=S)N/N=C/c1ncccc1N` [Triapine] the relative cell viability was 1.07 ± 0.071.
For `Nc1cccc2c1CN(C1CCC(=O)NC1=O)C2=O` (stereo unspecified) [Lenalidomide (CC-5013)], the relative cell viability was 1.14 ± 0.059.
With `COc1ccc2[nH]c([S+]([O-])Cc3ncc(C)c(OC)c3C)nc2c1` (stereo unspecified) [Omeprazole] the relative cell viability was 1.242 ± 0.011.
`COc1nc(-c2ccc3c(c2)OCO3)n(-c2ccc(NC(=O)CSc3ccccc3)cc2)n1` [SecinH3] was tested, and the relative cell viability was 1.18 ± 0.014.
`O=C(Nc1ccc(-c2ccnc(Nc3ccc(N4CCOCC4)cc3)n2)cc1)C1CCCN1` (stereo unspecified) showed a relative cell viability of 1.108 ± 0.0066.
With `Cc1ccccc1N1C(=O)c2cc(S(N)(=O)=O)c(Cl)cc2NC1C` (stereo unspecified) [Metolazone] the relative cell viability was 1.01 ± 0.027.
Compound `Cc1cc(-n2c(=O)[nH]c(=O)n(C)c2=O)ccc1Oc1ccc(SC(F)(F)F)cc1` [Toltrazuril] has a relative cell viability of 1.036 ± 0.0076.
Work on `[I-].[K+]` [Potassium Iodide] yielded a relative cell viability of 1.07 ± 0.056.
`O=C(NS(=O)(=O)c1ccc(Br)s1)c1ccc(Cl)cc1Cl` [Tasisulam] showed a relative cell viability of 1.08 ± 0.014.
`C/C(=N\NC(=O)c1cccc(S(=O)(=O)N2CCOCC2)c1)c1cc(Cl)ccc1O` was tested, and the relative cell viability was 0.87899 ± 0.00067.
For `COc1ccc(CNC(=O)Nc2ncc([N+](=O)[O-])s2)cc1`, the relative cell viability was 1.16 ± 0.078.
For `Cn1c2ccccc2c2c3c(c4c5ccccc5n(CCC#N)c4c21)CNC3=O`, the relative cell viability was 1 ± 0.081.
Work on `OCCOCCN1CCN(C(c2ccccc2)c2ccc(Cl)cc2)CC1` (stereo unspecified) [Hydroxyzine 2HCl] yielded a relative cell viability of 1.1 ± 0.054.
With `Cc1nc(N)sc1-c1ccnc(Nc2ccc(N3CCOCC3)cc2)n1` the relative cell viability was 0.9862 ± 0.0045.
Compound `C[C@]12CC[C@@H]3c4ccc(O)cc4CC[C@H]3[C@@H]1C[C@@H](O)[C@@H]2O` [Estriol] has a relative cell viability of 0.939 ± 0.23.
`OCC(O)C(O)CO` (stereo unspecified) [Erythritol] was tested, and the relative cell viability was 1.118 ± 0.011.
`C[C@@H]1CN(CC(=O)Nc2ccc3c(c2)Cc2cccc(-c4cc(=O)cc(N5CCOCC5)o4)c2S3)C[C@H](C)O1` gave a relative cell viability of 1.17 ± 0.021.
Compound `CCC[C@H](NC(=O)[C@@H]1[C@H]2CCC[C@H]2CN1C(=O)[C@@H](NC(=O)[C@@H](NC(=O)c1cnccn1)C1CCCCC1)C(C)(C)C)C(=O)C(=O)NC1CC1` [Telaprevir (VX-950)] has a relative cell viability of 1.06 ± 0.069.
Compound `Cc1noc(NS(=O)(=O)c2ccc(N)cc2)c1C` [Sulfisoxazole] has a relative cell viability of 1.06 ± 0.021.
With `CCc1cccc2c3c([nH]c12)C(CC)(CC(=O)O)OCC3` (stereo unspecified) [Etodolac] the relative cell viability was 1.24 ± 0.061.
For `CC(=O)N1CCN(CCOc2ccc(C3CCN(C4=Nn5c(nnc5C(F)(F)F)CC4)CC3)cc2)CC1`, the relative cell viability was 1.03 ± 0.016.
For `C=CC(=O)N1CCC[C@@H](n2nc(-c3ccc(Oc4ccccc4)cc3)c3c(N)ncnc32)C1`, the relative cell viability was 0.887 ± 0.016.
Compound `O=C(O)c1ccccc1C(=O)Nc1ccc(-c2ccccc2)cc1` [Kartogenin] has a relative cell viability of 0.914 ± 0.16.
Work on `CC1=C(CC(=O)O)c2cc(F)ccc2/C1=C\c1ccc([S+](C)[O-])cc1` (stereo unspecified) [Sulindac] yielded a relative cell viability of 0.754 ± 0.044.
`C=CC(=O)Nc1ccc2ncnc(Nc3ccc(OCc4cccc(F)c4)c(Cl)c3)c2c1` showed a relative cell viability of 0.787 ± 0.047.
`CCOC(=O)[C@H](CCc1ccccc1)N[C@@H](C)C(=O)N1CCC[C@H]1C(=O)O` [Enalapril Maleate] was tested, and the relative cell viability was 0.946 ± 0.085.
`CNC(=O)[C@H](Cc1ccccc1)NC(=O)[C@H](CC(C)C)[C@H](CSc1cccs1)C(=O)NO` [Batimastat (BB-94)] gave a relative cell viability of 0.884 ± 0.076.
In the case of `CC[C@@H]1/C=C(\C)C[C@H](C)C[C@H](OC)[C@H]2O[C@@](O)(C(=O)C(=O)N3CCCC[C@H]3C(=O)O[C@H](/C(C)=C/[C@@H]3CC[C@H](Cl)[C@H](OC)C3)[C@H](C)[C@@H](O)CC1=O)[C@H](C)C[C@@H]2OC` [Pimecrolimus], the relative cell viability is reported as 1.07 ± 0.022.
With `Cc1cc(Nc2nc(N[C@@H](C)c3ncc(F)cn3)ncc2Cl)[nH]n1` the relative cell viability was 0.871 ± 0.069.
With `COC[C@H](NC(=O)c1cnc(C)s1)C(=O)N[C@@H](COC)C(=O)N[C@@H](Cc1ccccc1)C(=O)[C@@]1(C)CO1` [Oprozomib (ONX 0912)] the relative cell viability was 0.0586 ± 0.0043.
Compound `CC(CCC(=O)NCCS(=O)(=O)O)C1CCC2C3C(O)CC4CC(O)CCC4(C)C3CCC12C` (stereo unspecified) [Sodium Tauroursodeoxycholate (TUDC)] has a relative cell viability of 1.07 ± 0.044.
`CCN(c1cc(-c2ccc(CN3CCOCC3)cc2)cc(C(=O)NCc2c(C)cc(C)[nH]c2=O)c1C)C1CCOCC1` showed a relative cell viability of 1.117 ± 0.011.
Compound `Cn1c([N+](=O)[O-])cnc1COC(N)=O` [Ronidazole] has a relative cell viability of 1.12 ± 0.089.
For `O=C(O)CC1CC(c2ccccc2)=NO1` (stereo unspecified), the relative cell viability was 1.08 ± 0.077.
`COc1ccc(C[C@@H]2c3cc(OC)c(OC)cc3CC[N@+]2(C)CCC(=O)OCCCCCOC(=O)CC[N@@+]2(C)CCc3cc(OC)c(OC)cc3[C@H]2Cc2ccc(OC)c(OC)c2)cc1OC` [Cisatracurium Besylate] showed a relative cell viability of 1.06 ± 0.044.
`CCOC(=O)c1c(C)n(C)c2ccc(O)cc12` [Mecarbinate] showed a relative cell viability of 0.967 ± 0.011.
Work on `Fc1cc(-c2cccc3ncc(-c4cnn(C5CCNCC5)c4)nc23)cc(F)c1CN1CCOCC1` yielded a relative cell viability of 0.975 ± 0.054.
Compound `CC(N)C12CC3CC(CC(C3)C1)C2` (stereo unspecified) [Rimantadine] has a relative cell viability of 1.03 ± 0.045.
Compound `CN(CCOc1ccc(CC2SC(=O)NC2=O)cc1)c1ccccn1` (stereo unspecified) [Rosiglitazone HCl] has a relative cell viability of 1.13 ± 0.016.
`CN(CCOc1ccc(CC2SC(=O)NC2=O)cc1)c1ccccn1` (stereo unspecified) [Rosiglitazone] gave a relative cell viability of 0.968 ± 0.043.
Compound `CN(CCOc1ccc(CC2SC(=O)NC2=O)cc1)c1ccccn1` (stereo unspecified) [Rosiglitazone maleate] has a relative cell viability of 1.16 ± 0.021.
`O=C(/C=C/n1cnc(-c2cc(C(F)(F)F)cc(C(F)(F)F)c2)n1)N1CC(F)(F)C1` was tested, and the relative cell viability was 0.473 ± 0.06.
Work on `NCc1c[nH]c(=S)n1[C@@H]1CCc2c(F)cc(F)cc2C1` [(R)-Nepicastat HCl] yielded a relative cell viability of 1.08 ± 0.04.
`Cc1ccc2c(Cl)cc(Cl)c(O)c2n1` [Chlorquinaldol] gave a relative cell viability of 0.785 ± 0.025.
Compound `N=C(N)N/N=C/c1c(Cl)cccc1Cl` [Guanabenz Acetate] has a relative cell viability of 1.17 ± 0.058.
With `Brc1c(NC2=NCCN2)ccc2nccnc12` [Brimonidine Tartrate] the relative cell viability was 1.06 ± 0.014.
`CN(C)CCOC(=O)COc1ccc(Cl)cc1` [Meclofenoxate (Centrophenoxine) HCl] was tested, and the relative cell viability was 1.19 ± 0.012.
`CNC(CC(=O)O)C(=O)O` [NMDA (N-Methyl-D-aspartic acid)] gave a relative cell viability of 1.16 ± 0.023.
`Cc1cc(Nc2ccc(NC(=O)c3ccc(Nc4ccnc5ccccc45)cc3)cc2)nc(N)n1` showed a relative cell viability of 1.21 ± 0.028.
Work on `C[C@]12CC[C@@H]3c4ccc(O)cc4CC[C@H]3[C@@H]1CC[C@@H]2OC(=O)CCC1CCCC1` [Estradiol Cypionate] yielded a relative cell viability of 1.13 ± 0.085.
With `CCS(=O)(=O)Nc1ccc2[nH]c(O)c(C(=Nc3ccc(CN4CCCCC4)cc3)c3ccccc3)c2c1` [Hesperadin] the relative cell viability was 0.423 ± 0.0064.
With `CC(C)N(CCCNC(=O)Nc1ccc(C(C)(C)C)cc1)C[C@H]1O[C@@H](n2ccc3c(N)ncnc32)[C@H](O)[C@@H]1O` the relative cell viability was 0.952 ± 0.14.
For `C[C@@H]1[C@H](O)[C@@H](C)/C=C/C=C/C=C/C=C/C=C/C=C/C=C/[C@H](O[C@@H]2O[C@H](C)[C@@H](O)[C@H](N)[C@@H]2O)C[C@@H]2O[C@](O)(C[C@@H](O)C[C@@H](O)[C@H](O)CC[C@@H](O)C[C@@H](O)CC(=O)O[C@H]1C)C[C@H](O)[C@H]2C(=O)O` [Amphotericin B], the relative cell viability was 1.16 ± 0.049.
`CC(C)/N=c1\cc2n(-c3ccc(Cl)cc3)c3ccccc3nc-2cc1Nc1ccc(Cl)cc1` [Clofazimine] gave a relative cell viability of 0.929 ± 0.062.
Work on `O=C1Cc2cc(CCN3CCN(c4nsc5ccccc45)CC3)c(Cl)cc2N1` [Ziprasidone HCl] yielded a relative cell viability of 1.15 ± 0.031.
`O=C(NOCCO)c1ccc2cncn2c1Nc1ccc(I)cc1F` gave a relative cell viability of 0.865 ± 0.032.
`CCOc1cc(C(=O)N2CCC(N3CCN(C)CC3)CC2)ccc1Nc1ncc2c(n1)N(C1CCCC1)c1ccccc1C(=O)N2C` was tested, and the relative cell viability was 0.991 ± 0.054.
